# Measurements as given in PubChem BioAssay AID1460 (National Center for Advancing Translational Sciences (NCATS), 2008).
# Screen size: about 270,000 compounds; about 5,800 (2.1%) were called active. The inconclusive results got no clear call from the source; some entries with a clear call stand among them for comparison. The call rests on the fitted dose curve; in most records, active means well fitted inhibition curve with a large enough effect; inconclusive means small, poorly fitted or top-dose-only effect; inactive means flat fitted curve, though single readings scatter. Where the call is inconclusive, the potency comes from a doubtful curve fit.
# Target: Microtubule-associated protein tau (Homo sapiens) (UniProt P10636)
# Test: qHTS for Inhibitors of Tau Fibril Formation, Thioflavin T Binding; further: nearly all actives have a fitted effect of over 55% in size
# Conditions: recombinant tau K18 P301L (four-repeat tau fragment), heparin-induced fibrillization, ThT fluorescence; series mostly up to 57.4 µM
# Summary of the method: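 Heparin-induced (20 uM) aggregation of recombinant human K18 P301L tau, 15 uM unlabeled with 0.24 uM labeled, pH 7 acetate buffer, 6 hr at 37 C with compound. Fibrils quantified by 30 uM ThT fluorescence after 1 hr ambient incubation.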
# Potency means the concentration at half of the fitted maximal effect; tags describe the fitted curve by direction and shape.
# UniProt P10636, sequence (P10636 whole entry, looked up): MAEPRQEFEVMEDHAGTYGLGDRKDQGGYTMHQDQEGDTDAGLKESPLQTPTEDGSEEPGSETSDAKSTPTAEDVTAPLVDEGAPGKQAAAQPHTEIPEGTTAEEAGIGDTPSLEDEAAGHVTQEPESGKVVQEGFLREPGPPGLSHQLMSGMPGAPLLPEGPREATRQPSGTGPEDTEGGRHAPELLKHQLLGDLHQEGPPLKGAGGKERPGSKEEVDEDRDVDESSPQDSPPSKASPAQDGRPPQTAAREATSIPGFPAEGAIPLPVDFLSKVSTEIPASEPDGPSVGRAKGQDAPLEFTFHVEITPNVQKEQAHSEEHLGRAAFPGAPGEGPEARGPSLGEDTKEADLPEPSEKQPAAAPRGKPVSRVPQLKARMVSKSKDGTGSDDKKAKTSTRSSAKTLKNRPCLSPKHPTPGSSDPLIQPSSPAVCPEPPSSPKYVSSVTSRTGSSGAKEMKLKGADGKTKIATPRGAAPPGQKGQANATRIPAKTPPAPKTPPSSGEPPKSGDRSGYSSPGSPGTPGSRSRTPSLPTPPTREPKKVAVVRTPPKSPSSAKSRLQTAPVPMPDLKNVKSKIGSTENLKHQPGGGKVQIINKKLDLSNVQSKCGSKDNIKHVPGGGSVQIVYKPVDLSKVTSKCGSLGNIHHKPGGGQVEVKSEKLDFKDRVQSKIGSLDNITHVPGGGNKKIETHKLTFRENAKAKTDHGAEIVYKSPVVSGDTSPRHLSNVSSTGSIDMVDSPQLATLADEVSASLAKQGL
row,SMILES,Potency
1,CCOc1ccc(/C=C/C(=O)c2c(O)c3ccccc3oc2=O)cc1,"inconclusive: 4.47 µM [inhibitor, full curve]"
2,COc1cccc(C(=O)c2c(C)c(CCC#N)n3ccccc23)c1,"inconclusive: 39.8 µM [inhibitor, single point]"
3,CCN1C(=O)[C@@H]2[C@H]3C(=CC[C@H]2C1=O)C(=O)[C@H]1OC1[C@H]3O (stereo partly drawn),active: 3.98 µM
4,COc1ccc(Br)cc1C(=O)NC(=S)Nc1ccc(Cl)c(C(=O)O)c1,"inconclusive: 11.2 µM [inhibitor, partial curve]"
5,COc1ccc(NC(=O)c2cccc([N+](=O)[O-])c2)cc1,"inconclusive: 17.8 µM [inhibitor, partial curve]"
6,COc1ccccc1-n1cnc2cc(NCc3cccs3)ccc21,"inconclusive: 20 µM [inhibitor, partial curve, poor fit]"
7,Cc1cccc(Oc2coc3cc(OC(=O)c4cncc(Br)c4)ccc3c2=O)c1,"inconclusive: 12.6 µM [inhibitor, partial curve, poor fit]"
8,CCOC(=O)c1oc2ccc(S(=O)(=O)n3nc(-c4ccc(Br)cc4)cc3N)cc2c1C,inactive
9,COc1cccc(CNC(=O)c2nn(-c3ccc(C)cc3)c(=O)c3c2c2ccccc2n3C)c1,inactive
10,COc1ccc(-c2nnc(NC(=O)c3cc(C)on3)s2)cc1,"inconclusive: 7.94 µM [inhibitor, partial curve]"
11,Cc1cc(/C=N\NC(=O)c2cccs2)c(C)n1-c1ccc2ncccc2c1,"inconclusive: 17.8 µM [inhibitor, partial curve]"
12,Cn1c(-c2ccc3c(c2)OCO3)cnc1NCc1ccccc1Cl,"inconclusive: 15.8 µM [inhibitor, partial curve, poor fit]"
13,COc1ccc(Nc2nc(N)c3cc(OC)c(OC)cc3n2)cc1,"inconclusive: 7.94 µM [inhibitor, partial curve]"
14,CCN(Cc1ccncc1)C(=O)c1ccc2c(c1)S(=O)(=O)c1ccccc1C2=O,inactive
15,COc1ccc(CN2CCN(C(=O)C3CC(=O)N(C4CCCCCC4)C3)CC2)c(OC)c1OC (stereo not drawn),inactive
16,COc1ccc(NC(=O)CSc2nnc(NC(=O)Nc3ccccc3)s2)cc1OC,"inconclusive: 3.16 µM [inhibitor, full curve]"
17,COc1ccc2c(CCNC(=O)c3ccc([N+](=O)[O-])cc3)c[nH]c2c1,"inconclusive: 12.6 µM [inhibitor, partial curve, poor fit]"
18,O=[N+]([O-])c1cccc(-c2nc(-c3ccncc3)no2)c1,"inconclusive: 12.6 µM [inhibitor, partial curve]"
